{"source": "the supplement of paper PMC10126150", "note": "Sequences with one replicate were seen in a single cluster, so their values are uncertain.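 Further: ATP exposure 15 min at 22 °C before imaging.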"}
{"test_system": "ATP", "experiment": "switch fluorescence ratio, 500 uM ATP over buffer (Cy3 cluster intensity, sum of 5 cycles each) (fold (ratio)); higher = stronger signal-on switching upon ATP binding; sequences stand for … in TCGTCGGCAGCGTCAGATGTGTATAAGAGACAGTTTTTTTTTTTTTTTTTTTTTTTTT…TC", "details": "aptamer strand: ATP DNA aptamer (quencher-CACCTGGGGGAGTATTGCGGAGGAAGG + anchor), 100 nM annealed; ATP concentration: 500 uM; one replicate", "in_short": "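Five buffer/ATP imaging cycles were run on Cy3-labelled switching-strand clusters on a modified Illumina MiSeq flow-cell, with NaOH stripping and re-annealing between cycles. In each cycle, clusters annealed to 100 nM quencher-labelled ATP aptamer were imaged in selection buffer, then after 15 min with 500 uM ATP at 22 °C. Per cluster, the fluorescence ratio is summed target-cycle over summed buffer-cycle Cy3 intensity, averaged per switch-domain sequence. Only clusters within 100-1000 RFU were kept.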"}
{"sequence": "GCTGAAATGG", "switch fluorescence ratio": 0.993}
{"sequence": "GCTGAACCCA", "switch fluorescence ratio": 1.08}
{"sequence": "GCTGAATGTT", "switch fluorescence ratio": 1.01}
{"sequence": "GCTGACCTGA", "switch fluorescence ratio": 1.03}
{"sequence": "GCTGACTAAC", "switch fluorescence ratio": 1.12}
{"sequence": "GCTGACTATC", "switch fluorescence ratio": 0.984}
{"sequence": "GCTGAGGCTA", "switch fluorescence ratio": 1.04}
{"sequence": "GCTGAGTACG", "switch fluorescence ratio": 1.05}
{"sequence": "GCTGCATGT", "switch fluorescence ratio": 1.02}
{"sequence": "GCTGCCGGTT", "switch fluorescence ratio": 0.992}
{"sequence": "GCTGCGCATG", "switch fluorescence ratio": 1.5}
{"sequence": "GCTGCGTTCT", "switch fluorescence ratio": 1.04}
{"sequence": "GCTGCTCACG", "switch fluorescence ratio": 1.02}
{"sequence": "GCTGGAAAGA", "switch fluorescence ratio": 0.977}
{"sequence": "GCTGGACGTT", "switch fluorescence ratio": 0.986}
{"sequence": "GCTGGACTT", "switch fluorescence ratio": 0.984}
{"sequence": "GCTGGCTTCT", "switch fluorescence ratio": 1.07}
{"sequence": "GCTGGTAAAT", "switch fluorescence ratio": 0.943}
{"sequence": "GCTGGTACAA", "switch fluorescence ratio": 1.03}
{"sequence": "GCTGGTACGA", "switch fluorescence ratio": 1.1}
{"sequence": "GCTGGTAGGC", "switch fluorescence ratio": 1.01}
{"sequence": "GCTGGTGTCT", "switch fluorescence ratio": 0.98}
{"sequence": "GCTGTACATC", "switch fluorescence ratio": 1.02}
{"sequence": "GCTGTAGTTC", "switch fluorescence ratio": 1.14}
{"sequence": "GCTGTATATG", "switch fluorescence ratio": 0.972}
{"sequence": "GCTGTCCTTT", "switch fluorescence ratio": 0.948}
{"sequence": "GCTGTCGGTC", "switch fluorescence ratio": 0.975}
{"sequence": "GCTGTCGTGC", "switch fluorescence ratio": 0.935}
{"sequence": "GCTGTCTTGA", "switch fluorescence ratio": 0.977}
{"sequence": "GCTGTGCACC", "switch fluorescence ratio": 0.992}
{"sequence": "GCTGTGTCGT", "switch fluorescence ratio": 0.98}
{"sequence": "GCTGTTGTGA", "switch fluorescence ratio": 0.958}
{"sequence": "GCTGTTTCTT", "switch fluorescence ratio": 0.977}
{"sequence": "GCTTAAATAT", "switch fluorescence ratio": 0.99}
{"sequence": "GCTTAACTTT", "switch fluorescence ratio": 1.06}
{"sequence": "GCTTAAGAAC", "switch fluorescence ratio": 0.969}
{"sequence": "GCTTACAGGG", "switch fluorescence ratio": 0.997}
{"sequence": "GCTTAGTCG", "switch fluorescence ratio": 0.923}
{"sequence": "GCTTATCTGT", "switch fluorescence ratio": 1}
{"sequence": "GCTTATGAGT", "switch fluorescence ratio": 0.957}
{"sequence": "GCTTATGATC", "switch fluorescence ratio": 0.995}
{"sequence": "GCTTATTGAC", "switch fluorescence ratio": 1.05}
{"sequence": "GCTTCAAAGT", "switch fluorescence ratio": 0.963}
{"sequence": "GCTTCAACGC", "switch fluorescence ratio": 1.29}
{"sequence": "GCTTCCGAAC", "switch fluorescence ratio": 3.41}
{"sequence": "GCTTCCGGGC", "switch fluorescence ratio": 1.31}
{"sequence": "GCTTCTAATT", "switch fluorescence ratio": 1.01}
{"sequence": "GCTTCTGGCT", "switch fluorescence ratio": 0.957}
{"sequence": "GCTTCTTGGT", "switch fluorescence ratio": 0.979}
{"sequence": "GCTTGAATG", "switch fluorescence ratio": 1.02}
{"sequence": "GCTTGACCG", "switch fluorescence ratio": 1.03}
{"sequence": "GCTTGCCCAG", "switch fluorescence ratio": 1.03}
{"sequence": "GCTTGCTGAG", "switch fluorescence ratio": 0.998}
{"sequence": "GCTTGGATTA", "switch fluorescence ratio": 0.991}
{"sequence": "GCTTGGGTCA", "switch fluorescence ratio": 0.994}
{"sequence": "GCTTGTACTT", "switch fluorescence ratio": 1.02}
{"sequence": "GCTTTATTGG", "switch fluorescence ratio": 1.01}
{"sequence": "GCTTTCAGAT", "switch fluorescence ratio": 0.995}
{"sequence": "GCTTTCATGA", "switch fluorescence ratio": 1.01}
{"sequence": "GCTTTCCTGT", "switch fluorescence ratio": 0.979}
{"sequence": "GCTTTCTAGT", "switch fluorescence ratio": 0.963}
{"sequence": "GCTTTGGGTA", "switch fluorescence ratio": 1.01}
{"sequence": "GCTTTTACAT", "switch fluorescence ratio": 1.05}
{"sequence": "GCTTTTGTG", "switch fluorescence ratio": 0.994}
{"sequence": "GGAAAAAGCT", "switch fluorescence ratio": 1.03}
{"sequence": "GGAAAGGCGA", "switch fluorescence ratio": 1.03}
{"sequence": "GGAAAGTATT", "switch fluorescence ratio": 0.972}
{"sequence": "GGAAATAGGG", "switch fluorescence ratio": 0.999}
{"sequence": "GGAACCAATT", "switch fluorescence ratio": 0.999}
{"sequence": "GGAACCACTT", "switch fluorescence ratio": 1.01}
{"sequence": "GGAACGGATG", "switch fluorescence ratio": 0.982}
{"sequence": "GGAAGATAGT", "switch fluorescence ratio": 0.995}
{"sequence": "GGAAGATGCC", "switch fluorescence ratio": 1.01}
{"sequence": "GGAAGATTGG", "switch fluorescence ratio": 1.01}
{"sequence": "GGAAGCCTTC", "switch fluorescence ratio": 1.07}
{"sequence": "GGAAGGAAGT", "switch fluorescence ratio": 0.937}
{"sequence": "GGAAGGGCTC", "switch fluorescence ratio": 1.01}
{"sequence": "GGAAGGTAGT", "switch fluorescence ratio": 1}
{"sequence": "GGAATAATTG", "switch fluorescence ratio": 1.03}
{"sequence": "GGAATAGTGT", "switch fluorescence ratio": 0.998}
{"sequence": "GGAATATGTT", "switch fluorescence ratio": 1}
{"sequence": "GGAATCATCT", "switch fluorescence ratio": 0.959}
{"sequence": "GGAATCCTAT", "switch fluorescence ratio": 1.02}
{"sequence": "GGAATGCTCA", "switch fluorescence ratio": 1.45}
{"sequence": "GGAATGGTAA", "switch fluorescence ratio": 1}
{"sequence": "GGAATTAAGG", "switch fluorescence ratio": 1.07}
{"sequence": "GGAATTATAT", "switch fluorescence ratio": 1.05}
{"sequence": "GGAATTGTCT", "switch fluorescence ratio": 1}
{"sequence": "GGAATTTACT", "switch fluorescence ratio": 1.03}
{"sequence": "GGAATTTGAT", "switch fluorescence ratio": 0.971}
{"sequence": "GGACAAGGGA", "switch fluorescence ratio": 0.964}
{"sequence": "GGACACCAGT", "switch fluorescence ratio": 1.02}
{"sequence": "GGACACGGAA", "switch fluorescence ratio": 1.12}
{"sequence": "GGACAGCACC", "switch fluorescence ratio": 1.17}
{"sequence": "GGACATAACC", "switch fluorescence ratio": 1.07}
{"sequence": "GGACATGTGA", "switch fluorescence ratio": 0.999}
{"sequence": "GGACATTG", "switch fluorescence ratio": 0.999}
{"sequence": "GGACCAAGCA", "switch fluorescence ratio": 1.04}
{"sequence": "GGACCACTTT", "switch fluorescence ratio": 1.01}
{"sequence": "GGACCCAGTG", "switch fluorescence ratio": 1.21}
